Target: T1, human fibroblast activation protein (FAP) on cells (human, UniProt Q12884 1-760)
T1 construct: also called human FAP; huFAP
Experiment: flow cytometry, MV-3 and WM-266-4 cells

binding result: binds
B1: bivalent FAP (4B9)-targeted 4-1BB ligand (71-248) trimer-containing Fc (kih) fusion molecule Construct 2.6 (Fc fusion)
heavy 1: EVQLLESGGGLVQPGGSLRLSCAASGFTFSSYAMSWVRQAPGKGLEWVSAIIGSGASTYYADSVKGRFTISRDNSKNTLYLQMNSLRAEDTAVYYCAKGWFGGFNYWGQGTLVTVSSASTKGPSVFPLAPSSKSTSGGTAALGCLVKDYFPEPVTVSWNSGALTSGVHTFPAVLQSSGLYSLSSVVTVPSSSLGTQTYICNVNHKPSNTKVDKKVEPKSCDKTHTCPPCPAPEAAGGPSVFLFPPKPKDTLMISRTPEVTCVVVDVSHEDPEVKFNWYVDGVEVHNAKTKPREEQYNSTYRVVSVLTVLHQDWLNGKEYKCKVSNKALGAPIEKTISKAKGQPREPQVCTLPPSRDELTKNQVSLSCAVKGFYPSDIAVEWESNGQPENNYKTTPPVLDSDGSFFLVSKLTVDKSRWQQGNVFSCSVMHEALHNHYTQKSLSLSPGGGGGSGGGGSREGPELSPDDPAGLLDLRQGMFAQLVAQNVLLIDGPLSWYSDPGLAGVSLTGGLSYKEDTKELVVAKAGVYYVFFQLELRRVVAGEGSGSVSLALHLQPLRSAAGAAALALTVDLPPASSEARNSAFGFQGRLLHLSAGQRLGVHLHTEARARHAWQLTQGATVLGLFRVTPEIPAGLGGGGSGGGGSREGPELSPDDPAGLLDLRQGMFAQLVAQNVLLIDGPLSWYSDPGLAGVSLTGGLSYKEDTKELVVAKAGVYYVFFQLELRRVVAGEGSGSVSLALHLQPLRSAAGAAALALTVDLPPASSEARNSAFGFQGRLLHLSAGQRLGVHLHTEARARHAWQLTQGATVLGLFRVTPEIPAGL
heavy 2: EVQLLESGGGLVQPGGSLRLSCAASGFTFSSYAMSWVRQAPGKGLEWVSAIIGSGASTYYADSVKGRFTISRDNSKNTLYLQMNSLRAEDTAVYYCAKGWFGGFNYWGQGTLVTVSSASTKGPSVFPLAPSSKSTSGGTAALGCLVKDYFPEPVTVSWNSGALTSGVHTFPAVLQSSGLYSLSSVVTVPSSSLGTQTYICNVNHKPSNTKVDKKV[no letters for human IgG1 Fc with changes]GGGGSGGGGSREGPELSPDDPAGLLDLRQGMFAQLVAQNVLLIDGPLSWYSDPGLAGVSLTGGLSYKEDTKELVVAKAGVYYVFFQLELRRVVAGEGSGSVSLALHLQPLRSAAGAAALALTVDLPPASSEARNSAFGFQGRLLHLSAGQRLGVHLHTEARARHAWQLTQGATVLGLFRVTPEIPAGL
light: EIVLTQSPGTLSLSPGERATLSCRASQSVTSSYLAWYQQKPGQAPRLLINVGSRRATGIPDRFSGSGSGTDFTLTISRLEPEDFAVYYCQQGIMLPPTFGQGTKVEIKRTVAAPSVFIFPPSDEQLKSGTASVVCLLNNFYPREAKVQWKVDNALQSGNSQESVTEQDSKDSTYSLSSTLTLSKADYEKHKVYACEVTHQGLSSPVTKSFNRGEC

From patent publication US20220259327A1 (published 2022)
